Molecules are shown by their SMILES. Hit rate of the full screen: of about 150,000 compounds, about 540 (0.36%) showed an effect of 50% or more. The list shows a part of the results.

The subject of the assay is Plasmodium falciparum. Briefly: Primary screen in NF54 nanoGlo assay, in single point, at 2uM, 72h; a lower Z score goes with more inhibition. In kind it is functional, Erythrocyte. Particulars: timepoint 72 hour.
Take `CC(C)(C)c1nccc(Nc2ccc3[nH]ncc3c2)n1`: the % Inhibition (as a rule, the drop in the measured response relative to a control, in per cent) was -10% and the Z score was determined as 1.47.
The corresponding values for `COCCN1CCC(CNC(=O)NC2CCN(C3CCCCC3)CC2)CC1` are 4% and -0.74.
In the same order, the values of `O=C(O)CCN1CCN(CC2CCCCC2)C2CS(=O)(=O)CC21` (stereo unspecified) are -9% and 1.54.
On to `CC(C)(O)c1cncc(-c2ccc(-c3ccn[nH]3)cc2)c1`, for which the “% Inhibition” value is -12% and the Z score is reported as 2.68.
As to `c1csc(CN2CCC[C@H](Nc3nccc(-c4ccncc4)n3)C2)c1`, the “% Inhibition” value stood at 0% and the Z score is -0.03.
The corresponding values for `COc1ccc(C(=O)C(c2c(C)[nH]c3ccccc23)c2c(C)[nH]c3ccccc23)cc1` are -9% and 1.38.
As for `OC1CCN(c2ccc(Nc3cnc4ccccc4n3)cc2)CC1`, the “% Inhibition” value is given as -8% and the Z score amounted to 1.41.
As for `O=C(NC[C@H]1CCCN(C(=O)c2cc(-c3ccsc3)[nH]n2)C1)c1cnccn1`, the “% Inhibition” value was -4% and the Z score is 0.81.
In the same order, the values of `CCC(CC)(CNC(=O)OC(C)(C)C)NCc1n[nH]cc1C` are 9% and -1.93.
`O=C(CN1CC2CC(C1)C1CCCC(=O)N1C2)N1CCC(N2CCCCC2)CC1` (stereo unspecified): the “% Inhibition” value turned out to be 7% and the Z score is -1.12.
For the compound `Cn1cc(-c2c(-c3ccccc3)ncn2CCCN(CCO)CCO)cn1`, the “% Inhibition” value is recorded as -4% and the Z score is listed as 0.76.
In the same order, the values of `Cc1cc(N2CCC(NCCc3cn[nH]c3)CC2)nc(N2CCCCC2)n1` are 11% and -2.41.
In the same order, the values of `O=C(c1cc2cc(Cl)ccc2[nH]1)N1C2CCC1CC(O)(Cc1ccc(F)cc1F)C2` (stereo unspecified) are -9% and 1.52.
As to `Cc1cnn(C[C@H]2CN(C(=O)NCc3cn4c(n3)CCCC4)CCO2)c1`, the “% Inhibition” value worked out at 4% and the Z score is reported as -0.91.
`COc1ccc(CNC(=O)[C@@H]2CCCN2C2CCN(CC(F)(F)F)CC2)cn1`: the “% Inhibition” value was 0% and the Z score is listed as 0.01.
`NC(=O)c1ccc(-c2nc3c(c(NCCN4CCOCC4)n2)CCNC3)cc1`: the “% Inhibition” value came out at 2% and the Z score is given as -0.44.
`C[C@@H]1Oc2c(cccc2C(=O)NC2(c3nccs3)CCCC2)NC1=O`: the “% Inhibition” value was -5% and the Z score is 1.12.
Take `CCc1cc2c(Nc3ccc4[nH]nc(C(N)=O)c4c3)ncnc2s1`: the “% Inhibition” value was -17% and the Z score worked out at 3.31.
The corresponding values for `CS(=O)(=O)C[C@@H](O)CNc1ncnc2sccc12` are 2% and -0.3.
In the same order, the values of `C[C@@H](CN1CCc2ccccc2C1)NC1CCN(c2cc(C#N)ccn2)CC1` are 5% and -0.77.
In the same order, the values of `Cc1cccc(N2CCN(CC[C@H](C)NCc3csc(-c4ncccn4)n3)CC2)c1` are -12% and 2.19.
On to `CCN1CC[C@H](CNCc2csc(-c3ccsc3)n2)C1`, for which the “% Inhibition” value was determined as 4% and the Z score was -0.73.
The corresponding values for `OC1(Cn2ccnc2)CCN(Cc2ccnc3ccccc23)CC1` are -5% and 0.98.
